The record followed here is PubChem BioAssay AID330 (DTP/NCI, 2004).

Inconclusive results and toxic doses are left out. Some entries of the source have several records that differ or are many. Only these are listed. The source may hold further records. The records of an entry do not match, cause unknown; they may come from other doses, times, organisms or constructs than stated.

The assay deals with P388 leukemia ip, CD2F1 mice, survival T/C. Nature of the assay: NCI In Vivo Anticancer Drug Screen. Data for tumor model P388 Leukemia (intraperitoneal) in CD2F1 (CDF1) mice. As to conditions: endpoint: median survival time, higher = longer survival.

Consider `Cc1c(CNc2ccc(C(=O)NC(CC(=O)O)C(=O)O)cc2)ccc2nc(N)nc(N)c12` (stereo not given), for which, for the setting “dose: 25.0 mg/kg/injection, schedule: Q04DX003 (ip), vehicle: saline with Tween-80”, the T/C was 86 % of control and 181 % of control.
On to `O=NN(CCCl)C(=O)NCCO`, for which the T/C is 102 % of control and 168 % of control (dose: 1.56 mg/kg/injection, schedule: Q01DX005 (ip), vehicle: water); 101 % of control and 346 % of control (dose: 6.25 mg/kg/injection, schedule: Q01DX005 (ip), vehicle: water).
Regarding `O=P1(N(CCCl)CCCl)NCCCO1` (stereo not given), the T/C was 100 % of control and 336 % of control (dose: 160.0 mg/kg/injection, schedule: Q04DX003 (ip), vehicle: saline); 106 % of control, 111 % of control, 153 % of control (dose: 240.0 mg/kg/injection, schedule: Q04DX003 (ip), vehicle: saline).
